Experimental findings from the supplement of paper PMC4967469 are described below.

The IC50 comes from the fitted curve, where viability falls to half of the control; a limit (>, <) means that the fit lies beyond the doses tested. The AUC spans the tested range (256-fold, ending at the top dose) of the same fit; it is 1 without any effect and falls as sensitivity rises. Any top dose called inferred was calculated from the reported fits. Drugs with an entry number were screened twice under separate entries, and the two screens often disagree.

Compound in one assay: NC(=O)[C@@H](CCC(F)(F)F)N(Cc1ccc(-c2ncon2)cc1F)S(=O)(=O)c1ccc(Cl)cc1 [BMS-708163]
Nature of the assay: Viability of human cancer cell lines after 72 h of drug (GDSC screen). The note with it: screen: GDSC drug entry 205; top dose inferred. Here is the method:
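Human cancer cell lines in 384-well plates, medium with 10% serum, drug for 72 h over a 256-fold dose range (nine 2-fold or five 4-fold steps up to the top dose). Adherent lines were fixed and stained with the nucleic acid dye Syto60, suspension lines read with resazurin; signal relative to control wells, capped at 0 and 100%. One two-parameter sigmoid per drug and line, fitted in a mixed model over all curves with the slope shared within a line.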
Turning to “HUTU-80 (digestive system, adherent, top dose 10.24 µM)”, the AUC came to 0.991 and the IC50 is more than 10.2 µM.

For “HeLa (cervix, adherent, top dose 10.24 µM)”, the AUC worked out at 0.986 and the IC50 was more than 10.2 µM.

Regarding “Hep 3B2_1-7 (liver, adherent, top dose 10.24 µM)”, the AUC turned out to be 0.986 and the IC50 is more than 10.2 µM.

On to “Hey (ovary, adherent, top dose 10.24 µM)”, for which the AUC worked out at 0.988 and the IC50 was more than 10.2 µM.

For the cell line “Hs633T (fibrosarcoma, adherent, top dose 10.24 µM)”, the AUC came to 0.992 and the IC50 is more than 10.2 µM.

“Hs683 (glioma, adherent, top dose 10.24 µM)”: the AUC was 0.988 and the IC50 is more than 10.2 µM.

On to “Hs746T (stomach, adherent, top dose 10.24 µM)”, for which the AUC was determined as 0.976 and the IC50 was more than 10.2 µM.

Consider “Hs766T (pancreas, adherent, top dose 10.24 µM)”, for which the AUC came to 0.984 and the IC50 is more than 10.2 µM.

“Hs939-T (melanoma, adherent, top dose 10.24 µM)”: the AUC came out at 0.986 and the IC50 was more than 10.2 µM.

With “Hs940-T (melanoma, adherent, top dose 10.24 µM)”, the AUC is 0.979 and the IC50 was more than 10.2 µM.

As to “Hs-445 (Hodgkin lymphoma, suspension, top dose 10.24 µM)”, the AUC is 0.989 and the IC50 was more than 10.2 µM.

Regarding “Hs-578-T (breast, adherent, top dose 10.24 µM)”, the AUC was determined as 0.987 and the 50% inhibitory concentration (IC50) is more than 10.2 µM.

As for “HuCCT1 (biliary tract, adherent, top dose 10.24 µM)”, the AUC was determined as 0.98 and the IC50 was more than 10.2 µM.

As for “HuH-7 (liver, adherent, top dose 10.24 µM)”, the AUC is 0.987 and the IC50 is more than 10.2 µM.

For “HuO9 (osteosarcoma, adherent, top dose 10.24 µM)”, the AUC was found to be 0.984 and the IC50 was more than 10.2 µM.

For “HuO-3N1 (osteosarcoma, adherent, top dose 10.24 µM)”, the AUC came to 0.979 and the IC50 is more than 10.2 µM.

In the case of “HuP-T3 (pancreas, adherent, top dose 10.24 µM)”, the AUC is 0.971 and the IC50 is more than 10.2 µM.

On to “HuP-T4 (pancreas, adherent, top dose 10.24 µM)”, for which the AUC turned out to be 0.965 and the IC50 is more than 10.2 µM.

In the case of “IA-LM (large cell lung carcinoma, adherent, top dose 10.24 µM)”, the AUC is 0.985 and the IC50 is more than 10.2 µM.

Turning to “IGR-1 (melanoma, adherent, top dose 10.24 µM)”, the AUC came to 0.99 and the IC50 is more than 10.2 µM.

As for “IGR-37 (melanoma, adherent, top dose 10.24 µM)”, the AUC is 0.989 and the IC50 was more than 10.2 µM.

As to “IHH-4 (thyroid, semi-adherent, top dose 10.24 µM)”, the AUC came out at 0.993 and the IC50 was more than 10.2 µM.

Turning to “IM-95 (stomach, adherent, top dose 10.24 µM)”, the AUC was determined as 0.965 and the IC50 is more than 10.2 µM.

In the case of “IMR-5 (neuroblastoma, adherent, top dose 10.24 µM)”, the AUC stood at 0.975 and the IC50 was more than 10.2 µM.

Consider “IPC-298 (melanoma, adherent, top dose 10.24 µM)”, for which the AUC worked out at 0.987 and the IC50 is more than 10.2 µM.

In the case of “IST-MEL1 (melanoma, adherent, top dose 10.24 µM)”, the AUC was determined as 0.973 and the IC50 is more than 10.2 µM.

“IST-MES1 (mesothelioma, adherent, top dose 10.24 µM)”: the AUC turned out to be 0.981 and the IC50 was more than 10.2 µM.

As for “IST-SL1 (small cell lung carcinoma, semi-adherent, top dose 10.24 µM)”, the AUC is 0.984 and the IC50 is more than 10.2 µM.

On to “IST-SL2 (small cell lung carcinoma, suspension, top dose 10.24 µM)”, for which the AUC was 0.986 and the IC50 is more than 10.2 µM.

On to “J82 (bladder, adherent, top dose 10.24 µM)”, for which the AUC came to 0.988 and the IC50 was more than 10.2 µM.

For the cell line “JAR (urogenital system, adherent, top dose 10.24 µM)”, the AUC was found to be 0.987 and the 50% inhibitory concentration (IC50) is more than 10.2 µM.

As to “JEG-3 (urogenital system, adherent, top dose 10.24 µM)”, the AUC was 0.989 and the IC50 is more than 10.2 µM.

For the cell line “JHH-1 (liver, adherent, top dose 10.24 µM)”, the AUC was determined as 0.973 and the IC50 is more than 10.2 µM.

Consider “JHH-2 (liver, adherent, top dose 10.24 µM)”, for which the AUC was found to be 0.986 and the IC50 is more than 10.2 µM.

On to “JHH-4 (liver, adherent, top dose 10.24 µM)”, for which the AUC turned out to be 0.945 and the IC50 was more than 10.2 µM.

Regarding “JHH-6 (liver, adherent, top dose 10.24 µM)”, the AUC worked out at 0.986 and the IC50 was more than 10.2 µM.

On to “JHH-7 (liver, adherent, top dose 10.24 µM)”, for which the AUC was 0.989 and the half-maximal inhibitory concentration (IC50) was more than 10.2 µM.

“JHOS-2 (ovary, adherent, top dose 10.24 µM)”: the AUC was determined as 0.971 and the IC50 was more than 10.2 µM.

Turning to “JHOS-3 (ovary, adherent, top dose 10.24 µM)”, the AUC stood at 0.984 and the IC50 is more than 10.2 µM.

“JHU-011 (head and neck, adherent, top dose 10.24 µM)”: the AUC is 0.982 and the IC50 was more than 10.2 µM.

“JHU-022 (head and neck, adherent, top dose 10.24 µM)”: the AUC was determined as 0.982 and the IC50 was more than 10.2 µM.

As to “JIMT-1 (breast, adherent, top dose 10.24 µM)”, the AUC worked out at 0.981 and the IC50 is more than 10.2 µM.

For “JJN-3 (haematopoietic neoplasm, suspension, top dose 10.24 µM)”, the AUC is 0.993 and the IC50 was more than 10.2 µM.

Consider “JM1 (B-cell lymphoma, suspension, top dose 10.24 µM)”, for which the AUC was 0.991 and the IC50 was more than 10.2 µM.

As for “JSC-1 (B-cell lymphoma, suspension, top dose 10.24 µM)”, the AUC amounted to 0.968 and the IC50 was more than 10.2 µM.

In the case of “JURL-MK1 (chronic myeloid leukaemia, suspension, top dose 10.24 µM)”, the AUC came to 0.986 and the IC50 was more than 10.2 µM.

Take “JVM-2 (lymphoid neoplasm, suspension, top dose 10.24 µM)”: the AUC is 0.982 and the IC50 is more than 10.2 µM.

As for “JVM-3 (lymphoid neoplasm, suspension, top dose 10.24 µM)”, the AUC came to 0.987 and the IC50 was more than 10.2 µM.

Consider “JiyoyeP-2003 (Burkitt lymphoma, suspension, top dose 10.24 µM)”, for which the AUC worked out at 0.991 and the IC50 was more than 10.2 µM.

Consider “K2 (melanoma, adherent, top dose 10.24 µM)”, for which the AUC stood at 0.982 and the IC50 was more than 10.2 µM.

As for “K5 (thyroid, adherent, top dose 10.24 µM)”, the AUC was 0.987 and the half-maximal inhibitory concentration (IC50) was more than 10.2 µM.

For the cell line “KALS-1 (glioma, adherent, top dose 10.24 µM)”, the AUC came to 0.974 and the IC50 was more than 10.2 µM.

Regarding “KARPAS-45 (lymphoblastic leukaemia, suspension, top dose 2.56 µM)”, the AUC is 0.966 and the IC50 is more than 2.56 µM.

On to “KARPAS-231 (B-cell leukaemia, suspension, top dose 10.24 µM)”, for which the AUC is 0.994 and the IC50 is more than 10.2 µM.

Take “KARPAS-299 (anaplastic large cell lymphoma, suspension, top dose 10.24 µM)”: the AUC amounted to 0.992 and the IC50 is more than 10.2 µM.

As to “KARPAS-422 (B-cell lymphoma, suspension, top dose 10.24 µM)”, the AUC stood at 0.988 and the IC50 was more than 10.2 µM.

In the case of “KARPAS-620 (haematopoietic neoplasm, suspension, top dose 10.24 µM)”, the AUC worked out at 0.991 and the IC50 is more than 10.2 µM.

In the case of “KASUMI-1 (acute myeloid leukaemia, suspension, top dose 10.24 µM)”, the AUC was found to be 0.968 and the IC50 was more than 10.2 µM.

The same assay, now with this note: top dose 5 µM; screen: GDSC drug entry 1072; top dose inferred.
As for Hey (ovary, adherent), the AUC came to 0.959 and the IC50 is more than 5 µM.

Consider Hs746T (stomach, adherent), for which the AUC amounted to 0.958 and the IC50 is more than 5 µM.

Regarding IGROV-1 (ovary, adherent), the AUC is 0.953 and the IC50 is more than 5 µM.

As to JEKO-1 (B-cell lymphoma, suspension), the AUC turned out to be 0.968 and the IC50 is more than 5 µM.

On to JHOS-2 (ovary, adherent), for which the AUC came to 0.973 and the IC50 is more than 5 µM.

In the case of JHOS-3 (ovary, adherent), the AUC was found to be 0.979 and the IC50 is more than 5 µM.

As to JHOS-4 (ovary, adherent), the AUC was 0.905 and the IC50 was more than 5 µM.

As to Jurkat (T-cell leukaemia, suspension), the AUC turned out to be 0.99 and the IC50 is more than 5 µM.

In the case of “KARPAS-1106P (B-cell lymphoma, suspension)”, the AUC was 0.98 and the IC50 is more than 5 µM.

Broadly, the IC50 is the concentration needed to halve the response being measured.
